Reference: PubChem BioAssay AID602233 (National Center for Advancing Translational Sciences (NCATS), 2012)
The whole screen tested about 380,000 compounds, of which about 170 (0.045%) were called active. The shares of active, inactive and inconclusive entries below differ from those in the screen. Calls follow the shape of the dose curve; as a rule, active = well fitted inhibition curve with a large enough effect; inconclusive = small, poorly fitted or top-dose-only effect; inactive = no such curve, though single readings can be large or run the other way. No potency is given beside an inconclusive call; the fits are too rough. Some compounds were tested as several samples or in several runs, with calls that do not always agree.

These molecules were tested against Phosphoglycerate kinase, glycosomal (Trypanosoma brucei brucei) (UniProt P07378) (assay: qHTS Assay to Find Inhibitors of Phosphoglycerate Kinase). Details: PGK/GAPDH coupled, Kinase-Glo luminescence, 60 min; series mostly up to 57.5 µM; activity change, negative = inhibition: at the top concentration.
Outline: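 Luminescent ATP detection (Kinase-Glo Plus) follows a 60-minute room-temperature incubation, with wells lacking PGK as controls. Buffer: 100 mM TEA (pH 7.6), 5 mM MgCl2, 0.01% Tween-20. Coupling enzyme GAPDH (100 nM final) supplies unstable 1,3-BPG in-well.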
% is scaled to controls: 0 for no effect and ±100 for the full control effect; potency is read from the fitted curve at half-maximal effect; tags tell the direction and shape of the fitted curve.
Also: nearly all actives have a fitted effect of over 60% in size.

Compound | Potency | activity change, negative = inhibition | outcome
O=C(Nc1nc2ccsc2c(=O)s1)c1ccco1 | inconclusive [inhibitor, single point] |  | 
CCOC(=O)c1sc(NC(=O)c2sccc2C)cc1C | inconclusive [inhibitor, partial curve, poor fit] |  | 
O=C(O)c1ccc(S(=O)(=O)/N=C2\C=C(Nc3ccccc3F)C(=O)c3ccccc32)cc1 | inconclusive [inhibitor, single point] |  | 
O=C(c1cccc(-n2cccc2)c1)N1CCN(S(=O)(=O)c2ccccc2)CC1 | inconclusive [inhibitor, partial curve, poor fit] |  | 
Cc1ccc2cc(CN(CCCO)S(=O)(=O)c3cccc4nsnc34)c(=O)[nH]c2c1 |  | inactive: -2.34% | 
COc1ccc(OC)c(S(=O)(=O)Nc2ccc(O)c(Sc3ncn[nH]3)c2)c1 | inconclusive [inhibitor, single point] |  | 
CCOc1ccccc1-c1c2cc(O)c(=O)cc-2oc2cc(O)c(O)cc12 | inconclusive [inhibitor, full curve, poor fit] |  | 
Cc1ccc(NC(=S)N2CCN(CCN3C(=O)c4cccc5cccc(c45)C3=O)CC2)cc1 | inconclusive [inhibitor, partial curve] |  | 
CNC(=S)N/N=C/c1ccc(-c2ccc(Cl)c([N+](=O)[O-])c2)o1 |  | inactive: -4.16% | 
COc1ccc(NC(=S)NNC(=S)Nc2cccc(C(F)(F)F)c2)cc1 |  | inactive: -0.469% | 
Cc1ccc(N2C(=O)c3ccccc3C2C(=O)c2ccc(O)cc2O)cc1 (stereo not drawn) | inconclusive [inhibitor, partial curve, poor fit] |  | 
Cc1noc(C)c1CSCC(=O)Nc1cc(Cl)ccc1N1CCCCC1 |  | inactive: 7.27% | 
COc1cc(NC(=O)Cn2c(=O)n(Cc3ccco3)c(=O)c3sc4ccccc4c32)cc(OC)c1 | inconclusive [inhibitor, single point] |  | 
Cc1c(-c2ccccc2)c(=O)oc2c(CN3CCOCC3)c(O)ccc12 |  | inactive: -4.95% | 
O=C(Cc1cccs1)Nc1ccc(S(=O)(=O)Nc2ncccn2)cc1 | inconclusive [inhibitor, single point] |  | 
Cc1c(C(=O)OCc2ccccc2)[nH]c2c1C(=O)CC(c1ccco1)C2 (stereo not drawn) | inconclusive [inhibitor, partial curve, poor fit] |  | 
O=C1Nc2ccc(Br)cc2/C1=N/N=C/C1=C(N2CCOCC2)C(=C\c2ccccc2)/CC1 | inconclusive [inhibitor, partial curve, poor fit] |  | 
O=C(O)c1ccccc1NS(=O)(=O)c1cccc(C(F)(F)F)c1 |  | inactive: -5.74% | 
CC(C)NC(=O)COC(=O)/C=C/c1ccco1 | inconclusive [inhibitor, partial curve, poor fit] |  | 
COc1cc(C2c3c([nH]c(=O)[nH]c3=O)Nc3ccc4ccccc4c32)cc(OC)c1OC (stereo not drawn) | inconclusive [inhibitor, partial curve, poor fit] |  | 
CCOC(=O)c1cccc(NC(=O)CCc2c(C)nn(-c3ccc(N4CCCCC4)nn3)c2C)c1 |  |  | inactive
Cn1c2ccccc2c2cc(/C=N/NC(=O)c3cc(O)cc(O)c3)ccc21 | inconclusive [inhibitor, single point] |  | 
CC1c2cc3c(cc2CCN1C(=O)c1ccc(Br)cc1)OCCCO3 (stereo not drawn) |  | inactive: -2.95% | 

Compound | Potency | activity change, negative = inhibition | outcome
COc1ccc(CC(=O)OCC(=O)Nc2ncc(Cl)c(C)c2Cl)cc1 | inconclusive [inhibitor, single point] |  | 
CCCn1c(=O)cc(N)n(-c2ccc(OC(F)(F)F)cc2)c1=O |  | inactive: 1.01% | 
O=c1c2ccccc2cnn1-c1nc2ccccc2[nH]1 | active: 10 µM |  | 
Cc1cc2nc(C)c(Cl)c(=O)n2[nH]1 |  | inactive: 6.57% | 
O=C1C(=C(I)I)c2ccccc2-c2ccccc21 |  | inactive: -13.9% | 
O=C(O)Cc1ccc(-n2cccc2)cc1 | inconclusive [inhibitor, single point] |  | 
CCOc1ccc2c(ccc(/C=C/c3cc(C)c4cccnc4c3O)[n+]2C)c1 | inconclusive [inhibitor, single point] |  | 
O=C(CSc1nnc2sc3ccccc3n12)NCc1ccc2c(c1)OCO2 | inconclusive [inhibitor, partial curve, poor fit] |  | 
Cc1[nH]n(-c2ccccc2)c(=O)c1N=Nc1c(O)cc(S(=O)(=O)N(C)C)c2ccccc12 | inconclusive [inhibitor, partial curve, poor fit] |  | 
O=C(O)C(S)C(S)C(=O)O (stereo not drawn) | inconclusive [inhibitor, single point] |  | 
Cc1ccc(C)n1-c1cc([N+](=O)[O-])ccc1-n1ccnc1 |  | inactive: -9.79% | 
O=C(O)C1OC(Oc2c(-c3ccc(O)c(O)c3)oc3cc(O)cc(O)c3c2=O)C(O)C(O)C1O (stereo not drawn) | active: 25.1 µM |  | 
Cc1ccc(-c2nnc3ccccc3c2C(=O)Nc2ccc(F)cc2)cc1 |  | inactive: -9.71% | 
CC(=O)c1c(C)[nH]c(C(=O)OCC(=O)Nc2cc(Cl)ccc2[N+](=O)[O-])c1C |  | inactive: -6.03% | 
Cn1c(=O)oc2cc(S(=O)(=O)NCCC(=O)Nc3ccc(F)c(Cl)c3)ccc21 | inconclusive [inhibitor, partial curve, poor fit] |  | 
COc1ccc(CCNC(=O)C2CCN(S(=O)(=O)c3ccc(OC)cc3)CC2)cc1 | inconclusive [inhibitor, single point] |  | 
Cc1noc(NS(=O)(=O)c2ccc(NC(=O)c3ccc(N4C(=O)c5ccccc5C4=O)cc3)cc2)c1C | inconclusive [inhibitor, single point] |  | 
N#CC(C#N)=c1ccc2c(c1)NC1(CCCCC1)N=2 | inconclusive [inhibitor, partial curve] |  | 
CCC(Sc1nc2ccsc2c(=O)n1Cc1ccc(C(=O)O)cc1)C(=O)Nc1cc(Cl)ccc1C (stereo not drawn) | inconclusive [inhibitor, single point] |  | 
O=C1/C(=C/Nc2ccc3c(c2)OCO3)CCc2ccccc21 | inconclusive [inhibitor, single point] |  | 
c1ccc(-c2ccccc2OCCOCCN2CCOCC2)cc1 |  | inactive: 1.23% | 
O=C(Nc1cc(C(=O)Nc2ccccc2C(=O)O)cc(C(=O)Nc2ccccc2C(=O)O)c1)c1ccccc1 | inconclusive [inhibitor, single point] |  | 
COc1cc(/C=C/[N+](=O)[O-])ccc1OCc1cccc(C(=O)O)c1 | inconclusive [inhibitor, single point] |  | 

Compound | Potency | activity change, negative = inhibition | outcome
CCC(=O)OC1(C)C(=O)C2=COC(c3ccc(OC)cc3)=CC2=C(Br)C1=O (stereo not drawn) | active: 20 µM |  | 
O=C(O)c1ccc(COc2ccc3ccccc3c2/C=C2/NC(=O)N(Cc3ccc(F)cc3)C2=O)cc1 | inconclusive [inhibitor, single point] |  | 
COc1cccc(NC(=O)c2ccc3c(c2)OCCO3)c1 | inconclusive [inhibitor, single point] |  | 
O=c1cc(-c2ccc(O)cc2)oc2ccc3ccccc3c12 | inconclusive [inhibitor, single point] |  | 
Cc1cc(NS(=O)(=O)c2ccc(NC(=S)Nc3ccc(Cl)cc3C)cc2)no1 | inconclusive [inhibitor, single point] |  | 
CNC(=O)C1CCC(Cn2c(=O)c3sccc3n(CC(=O)Nc3cc(C)cc(C)c3)c2=O)CC1 (stereo not drawn) | inconclusive [inhibitor, partial curve, poor fit] |  | 
Cc1cc(Cl)c(S(=O)(=O)N2CCCCCC2)cc1OCC(N)=O |  | inactive: -7.44% | 
Cc1nc(C(N)=O)c(N)n1CCc1ccccc1 |  | inactive: -8.28% | 
O=C(Nc1ccc(C(=O)N2CCCC2)cc1)c1ccccc1 | inconclusive [inhibitor, partial curve, poor fit] |  | 
CCCCCCc1cc2cc(-c3nnc(-c4ccccc4OC)o3)c(=O)oc2cc1O | inconclusive [inhibitor, partial curve, poor fit] |  | 
CCOC(=O)c1c(-c2ccc(C)cc2)csc1NC(=O)C1CC=CCC1C(=O)O (stereo not drawn) | inconclusive [inhibitor, single point] |  | 
C[C@@H]1CNC(=O)c2c(C(=O)Nc3cccc(Cl)c3)ncn21 |  | inactive: -1.22% | 
O=C1CC(SC(=S)C2CCCC2=O)C(=O)N1 (stereo not drawn) | inconclusive [inhibitor, single point] |  | 
COc1ccc(NS(=O)(=O)c2ccc3c(c2)[C@H]2C=CC[C@H]2[C@@H](c2ccc(C(=O)O)cc2)N3)cc1 | active: 28.2 µM |  | 
O=C1C=C(NCc2ccccc2)c2ccccc2C1=O | inconclusive [inhibitor, single point] |  | 
Oc1ccc(-c2cn3c(n2)SCC3)cc1O | inconclusive [inhibitor, partial curve, poor fit] |  | 
O=C(NCc1ccco1)C1c2ccccc2Oc2ccccc21 | inconclusive [inhibitor, partial curve, poor fit] |  | 
CC(=O)c1ccc(NC(=O)c2ccc3nc(-c4ccco4)c(-c4ccco4)nc3c2)cc1 | inconclusive [inhibitor, partial curve, poor fit] |  | 
CCN1C(=O)/C(=C/c2c(C)nn(C)c2C)SC1=S |  |  | inactive
O=C1NC(=S)S/C1=C\c1ccc(SCc2ccco2)o1 | active: 14.1 µM |  | 
Cc1ccc(/C=N/N2CCCCC2)o1 | inconclusive [inhibitor, full curve, poor fit] |  | 
CN(C)C(=S)Nc1ccc(Br)c(Cl)c1 | inconclusive [inhibitor, partial curve, poor fit] |  | 
